Experimental data reported in the supplement of paper PMC12632987.
The full ranking holds about 4,500 sequences; the median of “median log2 fold change of GCK-ALFA target abundance (FLAG IP / Myc IP barcode read proportion)” is about 0.078, and the lowest 2% start at about -0.6. This is one part of the list.

B1: GBRAP_128_3241 (protein)
chain: MPEELKKEVDELLEKVINGDVEEAREATEKLVELMGTVDDETAEEIAEKLIEALKELTAEKLEAVADTLLANRGKLDPEKQVLAYDVAIEALELAEELEE
B2: GBRAP_39_5650 (protein)
chain: EEEEENELLFDYYLAKAEGYMVEKGISEEELIAEGKEILEEIAKEHPEIAELVKKLLEKMENGDEETKLAATGIALDYKEGLPIEEIKEHIEKFLKYVEK
B3: GBRAP_52_6057 (protein)
chain: MKEELEATAEQIAEAIAAGDMEGALALAEELIKTKSVEEITETLELAAERVAGLGEAEHERFVDLLDEIHDLMIEAGISEEDADIVVGNAEAALAKAVAA
B4: GBRAP_125_2969 (protein)
chain: MEEELLEDLGLIARALGLSEEEVEEAVRLAREHSVRGTLYAIMAALGYDELAELVAKITEEEAKEVLRRVAAWIRAHPDATPEEVVAKMKELLEEAIAKR
B5: GBRAP_128_3192 (protein)
chain: TEEELAAMTEKLIEIVKTKDKAEVKAAVKAALEAIRAAGLDLVEAFTEMAEAVASSLDAENVKKFGEAAKAAAAEIEGEGETLARLVDAIVLTEIEEKEE
B6: GBRAP_96_7086 (protein)
chain: VSEELLKLVKEVKEAAKTDEEKLLKLLEELSKYSEEEIEEAFKKVEFTPEEVRKIAEAATKLGEEKAEKLLLALAEAAVEAGKTEQVRVVIEVSEKLEKE
B7: GBRAP_184_5354 (protein)
chain: TTEDVLIEADTVEEAIAKLRAAAAEAAAAGATLNVLIKVPINTVEEAKALMAAIAEAAAAGVLANTVGIDGVSQDDEIIDALIEGADAAGVRVVLALDGS
B8: GBRAP_184_5053 (protein)
chain: KTFEATIKAENEEELKEKLEELKEEVKNHKGNLIVLVEVPEFTEEMIKTIMEKMKEILDKGYAKKITVGLDGKMSEEVVDLALKLADEAGVNVVLALDEE
B9: GBRAP_184_5308 (protein)
chain: KVLHVTIEAKNAEEAIKKIKEAAEKAKKEGAKLEIDLYLENVDVEGFKKILEYLKKLKEEGILKSATIDLLDEKSEEEVDKLVKYADEAGVKLVVALSDE
B10: GBRAP_160_4012 (protein)
chain: MEEIEELIKEIEEEFEELKEWLKGESPENRLTIVRGTAGDILQLVFDSPSVSDETEDKIAEILDELVAWFEENANASLEEWEAAIDETLEKIKKLLEEDK
B11: GBRAP_184_5324 (protein)
chain: EVIHKVIEVETAEEAKEKLEELKKEAKKSGKKYLVTIELKNATAELIETVAEEIKKMKEEGIDAEFIVVINDPVDEELLDIAVEKMDEAGAKVVAALEDE
B12: GBRAP_139_3702 (protein)
chain: MTLEEKIEEAKRLTKEMEENPEESLEALVKLLNSLSEEEAEKALKAVTEVMAELPLDEFEKLADALLEKAEEEIEDEDKVLILEGVLNGGLARKAAEEEA
B13: GBRAP_160_4342 (protein)
chain: EEEKEKLLKFVDEEFDETKELIEGLSIEQRKVLISDTFGRIIMELSESSIVSDETEDKVREIEDELLAYLDANPDLSEEEIKKLIEEAREKVKEVIEKET
B14: GBRAP_35_5591 (protein)
chain: EITEIILETAEDYAEAAIYAIRNESIEEAIAALKAFIRTMRLAIEDLKDDAEALKKLAELIKRVIEEVKKYRSDNPEIQKLLKELEKLLKEAEKKAKEVE
B15: GBRAP_160_3970 (protein)
chain: SEAVEKLKKEIEEIFDEAKEMIKGETFEERLTVVRVAVGEVLLLAMESPLVSDEAEEKIAEIGDALIAELEANPDYTEEEIKALIEKAREEVIKVIEEDA
B16: GBRAP_11_2896 (protein)
chain: KKEKLKEAAELAEKAAKLLEELIKEGPDNEELRKKAEEALEKLLELAKKYLDESSVELAESALELFEKAKEDPENAKEYLEQALAYVRVLEGQVLLEIEE
B17: GBRAP_52_5987 (protein)
chain: MEEKARKIAEELVELRLAGKEEEAKKLIKEIVATLSEEEIKLIFEELARMAKTANPEEIDAIVDIALDLADAALEAGFDEAEVDDQLARVAAAAVEALQK
B18: GBRAP_35_5515 (protein)
chain: STDDTIADMLAASLEDLVLAVDDVPPDTLATMTLQYARAAREVIEAERDNIAGARRIAARLEALGAAIRARGLDDPRLQAAADAVDAVLALAREVAAREE
B19: GBRAP_128_3219 (protein)
chain: AAEEAVERARELLEELKEADEEEREEIARELAELVASLPVEVAEAVAEVVEELAPELSEEDLDILMDAFEEAARARSDERSLVLAEIAIIFGQELLELEE

molecular target: GABARAP, O95166; assay: median log2 fold change of GCK-ALFA target abundance (FLAG IP / Myc IP barcode read proportion) (log2 ratio); each designed protein is fused to an ALFA-tag nanobody in HEK293 cells to bring the named protein to FLAG-tagged glucokinase (GCK); Myc marks an untargeted standard; higher = target protein stabilised (more abundant); conditions: target protein: 3xFLAG-MCP-GCK-ALFA reporter; HEK293 landing pad (RPLP)
Sequence (O95166 whole entry, the tested form may be a part): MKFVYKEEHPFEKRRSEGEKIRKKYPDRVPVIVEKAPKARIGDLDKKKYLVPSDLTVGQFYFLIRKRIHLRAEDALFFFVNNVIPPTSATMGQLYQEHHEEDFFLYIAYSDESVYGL
Summary of the method: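 The readout is target abundance, the per-binder median log2 ratio of FLAG to Myc barcode read proportions. It came from HEK293 landing-pad cells carrying a recombined ALFA-nanobody-fused binder library, induced with 2 μg mL^−1 doxycycline and transfected with a plasmid for a FLAG-tagged target and a Myc-tagged standard. After 48 h, lysates were immunoprecipitated with anti-FLAG and anti-Myc, and circular RNA barcodes were reverse transcribed, amplified and sequenced. Each barcode needed a proportion of at least 10^−7 in both replicates and each binder at least 3 barcodes per replicate, a pseudocount of 10^−6 was added, and the replicates were pooled.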

Binder	median log2 fold change
B1	0.0281
B2	0.38
B3	0.0687
B4	-0.375
B5	0.132
B6	0.302
B7	-0.00595
B8	0.0997
B9	0.0556
B10	0.0135
B11	-0.098
B12	0.262
B13	0.31
B14	0.144
B15	-0.145
B16	0.203
B17	-0.219
B18	0.161
B19	-0.331
